Source: the RNAGym collection of RNA variant scans (doi:10.1093/nar/gkz1192)
The source gives no read counts; variants with many changes may rest on few reads.

B1: CPEB3 Ribozyme (parent)
chain: UAACAGGGGGCCACAGCAGAAGCGUUCACGUCGCAGCCCCUGUCAGAUUCUGGUGAAUCUGCGAAUUCUGCUGUAUAUCUC

Variants of: B1
Test: self-cleavage, relative activity (ratio to wild type); higher = more cleavage; in vitro, sequencing
In short: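 For each CPEB3 ribozyme variant, relative activity is its cleaved/total read fraction divided by the unmutated ribozyme's. Barcoded error-prone PCR libraries were transcribed by T7 RNA polymerase (5 hours, 37°C) and held in DNase I for 15 min before an EDTA stop, with cleavage occurring throughout. Template-switching reverse transcription and Illumina sequencing were used to read the RNAs. A 5-read minimum applied, and results are the mean of three batches.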

| Variant | self-cleavage |
| --- | --- |
| UAACGGGGGGCCACAGCAGAAGCGCUCACGUCCCAGCCCCUGUCAGAUUCUGGUGAAUCUGCGAAUUCUGCUGUAUAUCUC [A5G U25C G33C] | 0.11 |
| UAACGGGGGGCCACAGCAGAAGCGUACACGUCGCAGCCCCUGACAGAUCCUGGUGAAUCUGCGAAUUCUGCCGUAUAUCCC [A5G U26A U43A U49C U72C U80C] | 0.08 |
| UAACGGGGGGCCACAGCAGAAGCGCUCACGUCGCUGCCCCUGUCAGAUUCUGGUGAAUCUGCGAAUUCUGCUGUACAUCUC [A5G U25C A35U U76C] | 0.12 |
| UAACGGGGGGCCACAGCAGAAGCGGUCACGUCGCUGCCCCAGUCAGAUUCUGGUGAAUCUGCGAAUUCUGCAGUAUAUCUC [A5G U25G A35U U41A U72A] | 0.09 |
| UAACGGGGGGCCACAGCAGAAGCGUCCACGUCGCAGCCCUUGUCUGAUUCAGGUGAAGCUGCGAAUUCUGCUGGAUAUCUC [A5G U26C C40U A45U U51A U58G U74G] | 0.09 |
| UAACGGGGGGCCACAGCAGAAGCGCUCACGUCGCAGCCCCUGUCAGAUUCUGGUGAAUCUGCGAAUUCCGCUGUACAUCUC [A5G U25C U69C U76C] | 0.67 |
| UAACGGGGGGCCACAGCAGAAGCGCUCACGUCGCAGCCCCUGUCAGAUUCUGGCGAAUCUGCGAAAUCUGCUGCAUAUCUC [A5G U25C U54C U66A U74C] | 0.48 |
| UAACGGGGGGCCACAGCAGAAGCGCUCACGUCGCAGCCCCUGUCAGAUUCUGGUGAAUCUGCGAAUUCUGCUGUAUACCCC [A5G U25C U78C U80C] | 0.11 |
| UAACGGGGGGCCACAGCAGAAGCGCUCACGUCGCAGCCCCUGUCAGGUUCUGGUGUAUCUGCGAAUUCAGCUGUAUAUCUC [A5G U25C A47G A56U U69A] | 0.15 |
| UAACGGGGGGCCACAGCAGAAGCGCUCACGUCGCAGCCCCUGUCAGAUUCUGGUGAAUCUACGAAUUCUGCUGUAUGUCUC [A5G U25C G61A A77G] | 0.12 |
| UAACGGGGGGCCACAGCAGAAGCGCUCACGUCGCAGCCCCUGUCAGUUUCUGGUGAAUCCGCGAAUUCUGCUGUAUAUCUC [A5G U25C A47U U60C] | 0.08 |
| UAACGGGGGGCCACAGCAGAAGCGCUCACGUCGCAGCCCUUGUCAGAUUCUGGUGAAUCUGCGAAUUCUGCUGUAUAUCUC [A5G U25C C40U] | 0.4 |
| UAACGGGGGGCCACAGCAGAAGCGGUCACGUCGCUGCCCCUGUCAGACUCUGGUGUAUCUGCGAAUUCUGCUGCACAUCUC [A5G U25G A35U U48C A56U U74C U76C] | 0.15 |
| UAACGGGGGGCCACAGCAGAAGCGCUCACGUCGCGGCCCCUGUCCGAUUCUGGUGAAUCUGCGAAUUCUGCUGUAUAUCUC [A5G U25C A35G A45C] | 0.43 |
| UAACGGGGGGCCACAGCAGAAGCGCUCACGUCGCAGCCCCUGUCGGAUUCUGGUGAGUCUGCGAAUUCUGCUGUAUACCUC [A5G U25C A45G A57G U78C] | 0.04 |
| UAACGGGGGGCCACAGCAGAAGCGUACACGUCGCAGCCCCUGUCAGAUUCUGGUGAAUCCGCGAAUUCUGCUGUAUAUCUC [A5G U26A U60C] | 0.16 |
| UAACGGGGGGCCACAGCAGAAGCGUCAACGUCGCAGCCCCUGUCAGAUUCCGGUGAAUCUGCGAAUUCAGCUGUAUAUCUC [A5G U26C C27A U51C U69A] | 0.09 |

| Variant | self-cleavage |
| --- | --- |
| UAACGGGGGGCCACAGCAGAAGCGUACGCGUCACGGCCCCUGUCAGAUAAUGGUGAAUCUGCGAAUUCUGCUGUAUAUCUC [A5G U26A A28G G33A A35G U49A C50A] | 0.19 |
| UAACGGGGGGCCACAGCAGAAGCGCUCACGUCGCAGCCCCUGCCAGAUUCUGGUGGAUCUGCGAAUUCUGCUGUAUACCUC [A5G U25C U43C A56G U78C] | 0.25 |
| UAACGGGGGGCCACAGCAGAAGCGCUCACGUCGCAGCCCCUGCUAGAUUCUGGUGAAUCUGCGAAUUCUGCUGUAUAUCUC [A5G U25C U43C C44U] | 0.11 |
| UAACGGGGGGCCACAGCAGAAGCGUCCACGUCGCAGCCCCUGUCAGAUUCUGGUGAAUCUGCGUAUUCUGCUGUAAAUCUC [A5G U26C A64U U76A] | 0.25 |
| UAACGGGGGGCCACAGCAGAAGCGUACACGUCGCAGCCCCAGUCAGAUUCUGGUGAAUCUGCGAAUUCUGCUGUAUAUCUC [A5G U26A U41A] | 0.07 |
| UAACGGGGGGCCACAGCAGAAGCGCUCACGUCGCAGCCCCUGUCAGAUCCUGGUGAAUCUGCGAAUUCUGCCGUAUAUCUC [A5G U25C U49C U72C] | 0.24 |
| UAACGGGGGGCCACAGCAGAAGCGCCCACGUCGCAGCCCCUGUCAGAUCCUGGUGUAUCUGCGAAUUCUGCUGUAUAUCUC [A5G U25C U26C U49C A56U] | 0.69 |
| UAACGGGGGGCCACAGCAGAAGCGUACACGUCGCAGCCCCUGUCAGAUUCUGGUGAAGCUGUGAAUUCUGCUGUAUAUCUC [A5G U26A U58G C62U] | 0.25 |
| UAACGGGGGGCCACAGCAGAAGCGCUCACGUCGCAGCCCCUGUCAGAUUCUGGUGAAUCUGCGUAUUCUGCUGUAUAUCUC [A5G U25C A64U] | 0.32 |
| UAACGGGGGGCCACAGCAGAAGCGUCCACGUCGCAGCCCCUGUCAGAUUCUGGUGAAUCUGCGUAUUCUGCUGUAUAUCUC [A5G U26C A64U] | 0.22 |
| UAACGGGGGGCCACAGCAGAAGCGUCCACGUCGUGGCCCCUGUCAGAUUCUGGUGAAUCUGCGAAUUCUGCCGUAUACCUC [A5G U26C C34U A35G U72C U78C] | 0.12 |
| UAACGGGGGGCCACAGCAGAAGCGCUCACGUCGCAGCCCCUGUUAGACUCUGGUGAGUCUGCGAAUUCUGCUGUAUAUCUC [A5G U25C C44U U48C A57G] | 0.33 |
| UAACGGGGGGCCACAGCAGAAGCGUCCACGUCGCAGCCCCUGUCAGAUUCUGGUGAUUCUGCGAAUUCUGCUGUAUAUCUC [A5G U26C A57U] | 0.38 |
| UAACGGGGGGCCACAGCAGAAGCGUCCGCGUCGCAGCCCCUGUCAGAUCCUGGUGAAUCUGCGAAUUCUGCUGUAUAUCUC [A5G U26C A28G U49C] | 0.08 |
| UAACGGGGGGCCACAGCAGAAGCGCUCACGUCGCAGCCCCUGUCAGAUCCCGGUGAAUCUGCGAAUUCUGCUGUAUAUCUC [A5G U25C U49C U51C] | 0.28 |
| UAACGGGGGGCCACAGCAGAAGCGUACACGUCGCAGCCCCUGUCAGAUUCUGGCGAGUCUGCGAAUUCUGCUGUAUAUCUC [A5G U26A U54C A57G] | 0.31 |
| UAACGGGGGGCCACAGCAGAAGCGCACACGUCGCAGCCCCUGUCAGAUUCUGGUGAAUCUGCGAAUUCUGCCGUAUAUCUC [A5G U25C U26A U72C] | 0.61 |
